Measured values: PubChem BioAssay AID602393 (Broad Institute, 2012)
Out of some 350,000 compounds screened, about 7,000 (2%) were called active. This list was built around the results that the source calls inconclusive (neither active nor inactive); the mix of calls is not that of the screen. Cut-off read from the data, not from the text of the source: active = activation above about 40%; inconclusive = no clear call, values can overlap the other calls; inactive = below that.

Test: raisers of Bmi1 knock-in reporter signal – mouse ES cells, Bmi1 luciferase knock-in, single point, esBAF inhibitor project, primary screen (AID 602393);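 note: 0% = median of the plate's neutral control wells and 100% = double that signal; a rise in the Bmi1 reporter signal indicates esBAF inhibition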
Conditions: 24 h, at 12.5 µM, stronger effect = higher value, 100% = twice the neutral-well signal

SMILES	reporter increase
Cc1cc(-c2nc3ncccc3o2)ccc1N	inconclusive: 45%
COc1ccc(CCNC(=O)C2CCN(C(=O)c3ccc(C(C)(C)C)cc3)CC2)cc1OC	inconclusive: 31.8%
CCOc1ccc(NC(=O)Nc2ccc3nsnc3c2)cc1	inconclusive: 42.1%
C[C@@H]1CN([C@@H](C)CO)C(=O)c2cc(NC(=O)Nc3cccc4ccccc34)ccc2O[C@@H](C)CCCCO[C@H]1CN(C)C(=O)NC1CCCCC1	inactive: -2.12%
O=C(NCc1cccnc1)c1cc(-c2ccccc2)on1	active: 47.4%
O=[N+]([O-])c1ccccc1/C=N/N1CCN(Cc2ccccc2)CC1	inconclusive: 54.9%
CN1C[C@@H]2[C@H](c3ccccc31)[C@H](CO)N2Cc1ccccc1	inactive: -4.2%
OC1CCCC1NCc1ccnc2cc(Cl)ccc12 (configuration not stated)	inactive: -1.18%
CC(C)(C)c1ccc(C(=O)N2CCC(C(=O)NCCC3=CCCCC3)CC2)cc1	inconclusive: 40.4%
O=C(CSc1ccccn1)Nc1ccc2c(c1)OCCO2	inconclusive: 43.4%
COc1ccc(C(=O)Nc2nc3ccccc3[nH]2)cc1S(=O)(=O)N1CCCC1	active: 45.2%
O=C(Nc1ccc(Cl)cc1F)c1ccc(-n2cncn2)cc1	inconclusive: 40.9%
N/C(=N\OC(=O)c1ccccc1F)c1ccc([N+](=O)[O-])cc1	inconclusive: 52.6%
CC(=O)Nc1nnc(COc2ccccc2)s1	inconclusive: 43.1%
CCC(NC(=O)c1cc(COc2ccc(Cl)cc2OC)on1)c1ccncc1 (configuration not stated)	active: 67.7%
O=C(CCc1ccccc1)Nc1nc2c(F)cc(F)cc2s1	inconclusive: 41.4%
FC(F)(F)c1ccccc1Cc1c(-c2cccc(Br)c2)nc2c3ccccc3ccn12	inconclusive: 40.6%
CC(C)CCNC(=O)C1CCN(c2nnc(-n3cccc3)s2)CC1	inconclusive: 41.1%
COc1ccc(NC(=S)N/C(=N/S(=O)(=O)c2ccc(C)cc2)c2ccccc2)cc1	active: 58.8%
CCCC(=O)Nc1ccc(NC(=O)c2cc3ccccc3o2)c(OC)c1	active: 53.1%
O=C(COC(=O)[C@H](Cc1c[nH]c2ccccc12)NC(=O)c1ccc(Cl)cc1)Nc1ccc2c(c1)OCO2	inconclusive: 44.2%
Cc1c(CCNC=O)cc(C)c2c3c(oc12)CCCC3	inconclusive: 45.2%
C[C@H](CO)N1C[C@H](C)[C@@H](CN(C)C(=O)CCCN(C)C)OCCCC[C@H](C)Oc2ccc(NC(=O)Nc3ccc(C(F)(F)F)cc3)cc2C1=O	inactive: 0.711%

SMILES	reporter increase
CC1(C)Cc2c(cnn2-c2cccc(F)c2)C(NC(=O)CCN2CCCC2=O)C1 (configuration not stated)	inactive: 3.92%
CC1CCCCN1C(=O)c1cc2c(=O)n3ccccc3nc2s1 (configuration not stated)	inactive: 28.2%
O=C(Nc1ccc(-c2ccccc2)cc1)[C@@H]1[C@@H](CO)[C@@H]2Cn3c(cccc3=O)[C@@H]2N1CC1CCCCC1	inactive: 6.13%
CC(=O)N1N=C(c2ccc(Br)cc2)CC1c1ccc(Br)cc1 (configuration not stated)	active: 61.5%
COCCCNC(=O)C1CCN(C(=O)c2oc3cc4sc(N(C)C)nc4cc3c2C)CC1	active: 48.6%
Cn1c(SCc2c(F)cccc2Cl)nnc1-c1cnccn1	active: 59%
Cc1ccc(N(C)C(=O)CCS(=O)(=O)c2cc3c(cc2Cl)NC(=O)CO3)cc1	inactive: -1.86%
CCc1ccc(C(=O)Cc2cc3cccc(OC)c3oc2=O)cc1	inconclusive: 61.7%
Cc1cccc(S(=O)(=O)N2CCCCN3[C@H](C2)[C@@H](c2ccc(C#C[C@H](C)O)cc2)[C@@H]3CO)c1	inconclusive: 43.4%
CCN(CC)c1ccc(-n2cc3c(=O)n(C)c(=O)n(C)c3c2)cc1	inconclusive: 46.8%
C(#CC1CCCCC1)c1ccc2c(c1)COc1c3ccccc3nn1-2	inconclusive: 41.4%
C[C@H](CO)N1C[C@H](C)[C@H](CN(C)S(=O)(=O)c2ccccc2)Oc2ccc(NS(C)(=O)=O)cc2C1=O	inactive: -12.4%
Fc1cccc2sc(Nc3nc4ccccc4s3)nc12	inconclusive: 50.5%
CCc1ccc(NC(=O)N2CCCCCC2)cc1	inconclusive: 43%
Oc1cccc(NC(=S)N=Nc2c(O)[nH]c3ccccc23)c1	inconclusive: 68.1%
CC(C)NC(=O)N(C)C[C@@H]1Oc2cc(C#Cc3ccccn3)ccc2S(=O)(=O)N([C@H](C)CO)C[C@H]1C	inactive: 2.14%
CCOc1ccc(-c2c(=O)n(O)c3ccccc3[n+]2[O-])cc1	inconclusive: 38.7%
O=C(Nc1ccc(F)cc1Cl)c1ccc2c(=O)n3c(nc2c1)CCC3	inconclusive: 54.4%
CC(CCc1ccccc1)NCC(O)c1ccc(O)c(C(N)=O)c1 (configuration not stated)	inactive: 1.15%
O=c1oc(CCCO)cc2ccc(/C=C/c3cccc([N+](=O)[O-])c3)cc12	active: 49.2%
O=C(COc1ccc(Cl)cc1Cl)c1ccc[nH]1	inconclusive: 39.3%
On1c(-c2ccccc2)nc2ccc(Cl)cc21	inconclusive: 36.9%
Cc1ccc(/C=N/NC(=S)NC2CCCCC2)o1	inconclusive: 44.4%

SMILES	reporter increase
CCC(=O)NCCc1nc2cc(NC(=O)c3ccccc3OC)ccc2n1C	inconclusive: 45.3%
CC(=O)N1[C@H](C)C=C[C@]1(Cc1ccccc1)C(=O)O	inactive: -0.62%
O=C(CN1CCCCC1)Nc1scc2c1c(=O)oc1ccccc12	inconclusive: 55%
COc1ccc2cc(-c3[nH]ncc3CN3CCCCO3)ccc2c1	active: 56.4%
COCc1ccc(-c2c(-c3ccc(OC)cc3)oc(=O)c3cc(OC)c(OC)cc23)cc1	inconclusive: 48.1%
Cc1ccc(-n2ncc(Cl)c2C(=O)NCc2ccccc2)cc1	inconclusive: 44.4%
COc1cccc(CN(C(=O)c2cc3ccccc3oc2=O)C2CC2)c1	active: 56.7%
O=C(Nc1ccc(SC(F)F)cc1)c1ccc2nccnc2c1	active: 122%
O=C(OCC(=O)N1CCOCC1)c1ccc2ccccc2c1O	inconclusive: 42.7%
CCCOc1cccc(-c2nnc(NC(=O)c3ccco3)s2)c1	inconclusive: 41%
CCCCOc1ccc(-c2nnn(CC(=O)NCc3ccco3)n2)cc1	inconclusive: 41%
O=C(NCC(O)c1ccccc1)Nc1cccs1 (configuration not stated)	inconclusive: 46.9%
O=C(NNC(=O)c1ccc(Cl)cc1Cl)c1cccs1	inconclusive: 40.5%
Cc1ccc(-c2cc(C(=O)NCc3cccs3)no2)cc1	inconclusive: 43.8%
COc1ccc(NC(=O)c2c[nH]n3c(=O)cc(C4CCN(C(=O)OC(C)(C)C)CC4)nc23)cc1Cl	inactive: -4.67%
CCOc1cccc(C(=O)NC(=S)Nc2ccc3c(c2)OCCO3)c1	inconclusive: 43.3%
CCOC(=O)c1[nH]c2ccc(C)cc2c1N	inconclusive: 44.5%
CC1CCC(NC(=O)CCNC(=O)c2ccc(Br)cc2)CC1 (configuration not stated)	inconclusive: 43.7%
CC(=O)N(C)C[C@@H]1Oc2ncc(-c3ccc(F)cc3)cc2C(=O)N([C@H](C)CO)C[C@H]1C	inactive: -7.22%
COc1ccc(C(=O)/C=C(\C)Nc2ccc3c(c2)OCO3)cc1	active: 61.7%
CCc1ccc2oc(C(=O)Nc3nonc3CC)c(C)c2c1	inconclusive: 40.1%
Nc1nc2ccccc2n1/N=C/c1ccc2c(c1)OCO2	inconclusive: 59%
CCOc1ccc(NC(=O)c2c(N)n(C)c(=O)[nH]c2=O)cc1	inconclusive: 40.7%

SMILES	reporter increase
COc1cccc(C2=CC(c3cccc(OC)c3OC)n3nnnc3N2)c1 (configuration not stated)	active: 47.4%
N=C1C(c2nc3ccccc3s2)=C(O)CN1Cc1ccco1	active: 52.6%
COCCNC(=O)c1cc(-c2ccccc2OC)on1	inconclusive: 42.2%
Cc1c(C(=O)OCCOC(C)C)[nH]c2c1C(=O)CC(C)(C)C2	inconclusive: 44.2%
Cc1csc(NC(=O)CCCc2cccs2)n1	inconclusive: 41%
COc1cc(/C=C(\C#N)c2nc3ccccc3[nH]2)ccc1O	active: 54.9%
Cc1ccc2c(COC(=O)C3=COCCO3)cc(=O)oc2c1	inconclusive: 41.3%
CCc1nnc(NC(=O)Nc2ccccc2OC)s1	inconclusive: 41.8%
COCCCN(C(C)=O)c1nc(-c2ccccc2)cs1	active: 46%
Cc1noc(C)c1NC(=O)Nc1ccc2c(c1)C(=O)N([C@@H](C)CO)C[C@H](C)[C@@H](CN(C)S(C)(=O)=O)O2	inactive: 1.87%
CCCCCC#CCC#CCC#CCC#CCCCC(=O)O	inactive: -1.73%
O=C(NCCCn1ccnc1)/C(=C/c1ccco1)NC(=O)c1ccco1	inactive: -6.34%
COc1ccc(NC(=O)c2ccco2)cc1NC(=O)c1ccc(C)cc1	inactive: -4.07%
Cc1oc(-c2ccc(Cl)cc2)cc1C(=O)O	active: 55.6%
O=c1cc(-c2ccccc2)oc2cc(O)ccc12	inconclusive: 41.2%
Cc1ccc(C)c(NC(=S)c2ccc3ccccc3n2)c1	active: 75.6%
Cc1cc(C)nc(SCC2COc3ccccc3O2)n1 (configuration not stated)	inconclusive: 44.8%
O=C(CSc1nccc(=O)[nH]1)N1N=C2/C(=C/c3ccco3)CCCC2C1c1ccco1 (configuration not stated)	inactive: 0.902%
Cc1ccc(C=Nc2ccccc2C(N)=O)cc1	inconclusive: 41.7%
CCOc1ccc(NC(=O)N2CCc3ccccc3C2)cc1	inconclusive: 42.1%
Cc1ccc2ccc(C3C(=O)c4ccccc4C3=O)nc2c1	inconclusive: 42.5%
CCOc1ccc(/C=N/NC(=O)Cn2ccnc2C)cc1	inactive: -7.17%
O=C(NCCC1=CCCCC1)c1ccc(-n2cncn2)cc1	active: 42.2%
